Experiment [1] concerns the target Catechol O-methyltransferase (Homo sapiens) (UniProt P21964). The experiment is described as follows: Confirmatory Screen for Target Class Profiling of Small Molecule Inhibitors of Methyltransferases (AID 1745852).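 Also: inhibitor potency for blocking SAH production.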 Particulars: MTase-Glo luminescence, SAH detection, recombinant enzyme; measured here: COMT inhibition potency.
Experiment [2] concerns the target Histamine N-methyltransferase (Homo sapiens) (UniProt P50135). Described as above. Particulars: MTase-Glo luminescence, SAH detection, recombinant enzyme; measured here: HNMT inhibition potency.
Sequence of UniProt P50135 (P50135 whole entry, looked up): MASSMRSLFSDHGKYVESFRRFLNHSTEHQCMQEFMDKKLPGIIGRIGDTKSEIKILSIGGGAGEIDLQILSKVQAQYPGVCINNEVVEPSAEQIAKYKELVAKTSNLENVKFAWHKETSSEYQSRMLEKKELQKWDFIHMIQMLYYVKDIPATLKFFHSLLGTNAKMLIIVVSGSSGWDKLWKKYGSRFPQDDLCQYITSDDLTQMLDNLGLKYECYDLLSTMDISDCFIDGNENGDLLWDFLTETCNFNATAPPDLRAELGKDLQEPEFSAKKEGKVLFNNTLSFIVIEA
Experiment [3] concerns the target Nicotinamide N-methyltransferase (Homo sapiens) (UniProt P40261). The description is as above. Particulars: MTase-Glo luminescence, SAH detection, recombinant enzyme; measured here: NNMT inhibition potency.
Sequence of UniProt P40261 (P40261 whole entry, looked up): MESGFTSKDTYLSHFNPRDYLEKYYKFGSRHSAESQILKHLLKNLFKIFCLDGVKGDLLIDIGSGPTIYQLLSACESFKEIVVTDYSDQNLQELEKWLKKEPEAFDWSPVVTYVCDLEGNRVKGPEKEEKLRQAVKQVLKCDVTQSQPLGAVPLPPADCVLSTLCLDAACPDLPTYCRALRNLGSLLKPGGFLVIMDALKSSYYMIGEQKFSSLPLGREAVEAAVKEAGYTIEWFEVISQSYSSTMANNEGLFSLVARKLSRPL
For experiment [4], the target named is Phenylethanolamine N-methyltransferase (Homo sapiens) (UniProt P11086). The experiment is described as above. The note with it: MTase-Glo luminescence, SAH detection, recombinant enzyme; measured here: PNMT inhibition potency.
Sequence of UniProt P11086 (P11086 whole entry, looked up): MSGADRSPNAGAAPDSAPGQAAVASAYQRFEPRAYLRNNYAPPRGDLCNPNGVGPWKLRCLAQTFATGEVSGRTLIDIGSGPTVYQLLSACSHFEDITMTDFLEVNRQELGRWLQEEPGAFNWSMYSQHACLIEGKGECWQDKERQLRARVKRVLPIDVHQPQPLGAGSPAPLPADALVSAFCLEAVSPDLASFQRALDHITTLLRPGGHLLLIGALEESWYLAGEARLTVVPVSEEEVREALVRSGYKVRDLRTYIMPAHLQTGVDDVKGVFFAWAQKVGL
Experiment [5] in a line: qHTS drug screen for cell cycle checkpoint inhibitors in PARPi-resistant BRCA-mutant ovarian cancer cell lines. (AID 1963452). The note with it: PEO1/OlaR viability, CellTiter-Glo luminescence, 96 h. Put shortly:
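PEO1, PEO4 and PEO1/OlaR ovarian cancer cells, 600 per well, exposed 96 h at 37C to a dilution series. Viability read by CellTiter-Glo luminescence, normalized to DMSO and empty wells; activity summarized as Z-AUC.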
(In general: qHTS replaces the single test concentration by a dilution series.)

Experiment [6] can be described thus: qHTS for identification of novel therapeutic agents for treatment of microphthalmiaassociated transcription factor (MiT) renal cell carcinoma (RCC) (AID 1963991). Particulars: CellTiter-Glo, 48 h; for z-score: stronger effect = lower value. In a few lines: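 Viability of three TFE3-fusion renal carcinoma lines measured by CellTiter-Glo after 48 h treatment with each of 1912 compounds at 11 concentrations. Responses scaled between DMSO (100%) and empty wells (0%) before curve fitting.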

[7] abbreviates: measured here: PEO1 parental viability.
Where [8] appears, read: TFE3-RCC UOK109 viability, measured here: UOK109 Z-AUC.
Setting [9] is: TFE3-RCC viability, measured here: UOK124 Z-AUC.
Where [10] appears, read: TFE3-RCC viability, measured here: UOK124 cell viability.
Where [11] appears, read: TFE3-RCC viability, measured here: UOK145 Z-AUC.
The mark [12] stands for this setting: TFE3-RCC viability, measured here: UOK145 cell viability.

Broadly, the IC50 is the concentration at which inhibition is half-maximal. As usually defined, the AC50 is the concentration at which the activity in the assay is half-maximal.

The list shows a part of the results. Further columns of the screen follow, without active or inactive calls. For some of these results: Compounds called inactive in the main read-out are mostly missing here. Potencies come from curve fits of mixed quality, noted in brackets.
Tags tell the direction and shape of the fitted curve.

Sequence of UniProt P21964 (P21964 whole entry, looked up): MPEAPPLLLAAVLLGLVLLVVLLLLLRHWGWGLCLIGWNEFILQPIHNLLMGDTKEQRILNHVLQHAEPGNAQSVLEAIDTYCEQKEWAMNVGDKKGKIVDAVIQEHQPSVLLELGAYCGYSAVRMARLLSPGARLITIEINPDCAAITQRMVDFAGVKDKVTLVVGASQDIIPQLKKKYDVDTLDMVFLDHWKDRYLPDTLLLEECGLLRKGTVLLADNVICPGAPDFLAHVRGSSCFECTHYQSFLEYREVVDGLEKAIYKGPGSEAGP

In the case of `COc1cc2c(Nc3ccc(Cl)c(Cl)c3F)ncnc2cc1OCC1C[C@@H]2CN(C)C[C@@H]2C1` (some centres undefined), the half-inhibitory concentration (IC50) in experiment [1] was 19.2 µM [falling, partial curve]; in experiment [2], 4.82 µM [falling, full curve]; in experiment [3] it was 21.5 µM [falling, partial curve]; in experiment [4], 21.5 µM [falling, partial curve]. Besides, the half-maximal activity concentration (AC50) in experiment [5] (setting [7]) was 4.36 µM [falling, partial curve]; in experiment [5] (measured here: PEO4 viability) it was 6.16 µM [falling, partial curve].
For `C=CC(=O)Nc1cccc(Nc2nc(Nc3ccc(OCCOC)cc3)ncc2F)c1`, the IC50 in experiment [1] was 21.5 µM [falling, partial curve]; in experiment [2] it was 21.5 µM [falling, partial curve]; in experiment [3], 19.2 µM [falling, partial curve]; in experiment [4] it was 24.1 µM [falling, partial curve]. The AC50 in experiment [5] (setting [7]) was 5.49 µM [falling, partial curve]; in experiment [5] (measured here: PEO4 viability), 6.92 µM [falling, partial curve].
Take `O=C(O)C1(Cc2cccc(Nc3nccs3)n2)CCC(Oc2cccc(Cl)c2F)CC1` (centres undefined): the half-maximal inhibitory concentration (IC50) in experiment [1] is 24.1 µM [falling, single point]; in experiment [2], 27.1 µM [falling, partial curve]; in experiment [3], 24.1 µM [falling, single point]; in experiment [4], 24.1 µM [falling, partial curve]. Further, the AC50 was 3.09 µM [falling, partial curve] in experiment [5] (setting [7]); 0.245 µM [falling, full curve] in experiment [5] (measured here: PEO4 viability); 0.833 µM [falling, full curve] in experiment [6] (setting [10]). Further, the figures for the z-score in experiment [6] (setting [8]), in experiment [6] (setting [9]) and in experiment [6] (setting [11]) were 0.262, -0.102 and 0.594, respectively.
`COc1cc2c(Nc3ccc(Cl)c(Cl)c3F)ncnc2cc1OCC1C[C@@H]2CN(C)C[C@H]2C1`: the IC50 in experiment [1] was 19.2 µM [falling, partial curve]; in experiment [2], 17.1 µM [falling, partial curve]; in experiment [3] it was 21.5 µM [falling, partial curve]; in experiment [4], 19.2 µM [falling, partial curve]. Further, the AC50 in experiment [6] (setting [10]) was 11.8 µM [falling, partial curve]; in experiment [6] (setting [12]), 5.26 µM [falling, partial curve].
Take `Nc1ncnc2c1c(-c1cccc(OCc3ccccc3)c1)cn2C1CC(CN2CCCC2)C1` (centres undefined): the IC50 in experiment [1] is 24.1 µM [falling, partial curve]; in experiment [2] it was 3.41 µM [falling, full curve]; in experiment [3] it was 21.5 µM [falling, partial curve]; in experiment [4], 1.71 µM [falling, full curve]. Moreover, the AC50 was 11 µM [falling, partial curve, poor fit] in experiment [5] (setting [7]); 9.77 µM [falling, partial curve, poor fit] in experiment [5] (measured here: PEO4 viability); 16.6 µM [falling, partial curve] in experiment [6] (setting [10]); 23.5 µM [falling, partial curve] in experiment [6] (setting [12]). Further, the figures for the z-score in experiment [6] (setting [8]), in experiment [6] (setting [9]) and in experiment [6] (setting [11]) were 0.101, -0.33 and 0.063, respectively.
`OCCCNc1cc(-c2ccnc(Nc3cccc(Cl)c3)n2)ccn1`: the IC50 was 7.64 µM [falling, full curve] in experiment [1]; 9.61 µM [falling, full curve] in experiment [2]; 10.8 µM [falling, full curve] in experiment [3]; 8.57 µM [falling, full curve] in experiment [4]. Moreover, the AC50 in experiment [5] (setting [7]) is 0.155 µM [falling, full curve]; in experiment [5] (measured here: PEO4 viability), 0.245 µM [falling, full curve, poor fit]; in experiment [6] (setting [10]), 0.148 µM [falling, full curve]; in experiment [6] (setting [12]), 0.0743 µM [falling, full curve].
In the case of `CC(=O)OC1CC(=O)C2(C)C3CC4=C(OC(C)CC4=O)OC3(C)CCC2C1(C)C` (centres undefined), the IC50 was 10.5 µM [falling, partial curve] in experiment [1] and 0.937 µM [falling, full curve] in experiment [3].
Take `COc1ccc(CCNC(=O)c2ccc3c(=O)[nH]c4c(C(=O)NC5CCCC5)sc(=S)n4c3c2)cc1OC`: the IC50 was 21.5 µM [falling, partial curve] in experiment [1] and 21.5 µM [falling, partial curve] in experiment [3].
`COc1ccc(-c2cc(-c3cnn(C)c3)cn3cncc23)cn1`: the IC50 was 35 µM [falling, partial curve, poor fit] in experiment [1] and 35 µM [falling, partial curve] in experiment [3].
In the case of `COc1cc(Nc2c(C#N)cnc3cc(OCCCN4CCN(C)CC4)c(OC)cc23)c(Cl)cc1Cl`, the IC50 in experiment [1] is 10.8 µM [falling, partial curve]; in experiment [2] it was 8.57 µM [falling, full curve]; in experiment [3], 12.1 µM [falling, partial curve]; in experiment [4], 10.8 µM [falling, partial curve]. Moreover, the concentration at half-maximal activity (AC50) in experiment [5] (setting [7]) is 3.47 µM [falling, full curve]; in experiment [5] (measured here: PEO4 viability), 3.47 µM [falling, full curve]; in experiment [6] (setting [10]), 18.7 µM [falling, partial curve]; in experiment [6] (setting [12]) it was 2.96 µM [falling, full curve]. In addition, the z-score was -1.9 in experiment [6] (setting [8]), -0.876 in experiment [6] (setting [9]) and -0.592 in experiment [6] (setting [11]).

Values taken from PubChem BioAssay (NCATS).
